# Results from ChEMBL document CHEMBL4888484, “Replenishing the malaria drug discovery pipeline: Screening and hit evaluation of the MMV Hit Generation Library 1 (HGL1) against asexual blood stage Plasmodium falciparum ,using a nano luciferase reporter read-out” (2022).
# Out of some 150,000 compounds screened, about 540 (0.36%) showed an effect of 50% or more. Some of the results follow.
# Test system: Plasmodium falciparum
# Assay: Primary screen in NF54 nanoGlo assay, in single point, at 2uM, 72h; a lower Z score goes with more inhibition
# Assay type: functional, Erythrocyte
# Details: timepoint 72 hour
Structure (SMILES),% Inhibition,Z score
CCc1nc2cc(C(=O)N(CCOC)C(C)C)cc(NC(=O)c3ccccc3OC)c2n1C,12%,-1.61
COCC(=O)N1CC[C@@]2(O)CCN(Cc3ccc(F)c(F)c3)C[C@H]2C1,-4%,0.69
CNC(=O)C[C@H](C)N(C)Cc1cc2ccccc2n1C,-5%,0.63
CC(=O)NC[C@@H]1CC(F)(F)CN1C1CN(Cc2ccc(Cl)cc2)C1,10%,-1.18
COc1ccc(-c2nnc(NC(=O)CCc3ccccc3)o2)cc1OC,2%,-0.41
CCN(C(=O)c1cnc(C)cn1)c1ccccc1C,-1%,0.14
Cc1cc(NC(=O)CNc2cc(S(=O)(=O)N3CCCCC3)ccc2Oc2ccccc2)no1,-37%,4.3
CC(OCC1CC1)C(=O)N(CC1CN(C)CCO1)c1nccs1 (stereo not drawn),6%,-0.87
Cc1nc2ccc(NC(=O)c3snc(O)c3Cl)cc2s1,9%,-1.04
CN(C)[C@@H](CNC(=O)Cc1ccc(F)cc1)c1ccsc1,-4%,0.46
COCCC1(NC(=O)COc2ccc(F)cc2)CCN(CC2CC2)CC1,-1%,0.16
Cc1cc(C)n(C)c(=O)c1C(=O)N1CCn2nc(Cc3ccccc3)cc2C1,-5%,0.58
CN(C)Cc1ccc(Oc2ccc(CS(C)(=O)=O)cn2)cc1,-16%,1.37
COc1ccccc1-c1nc(CN2CCN(S(=O)(=O)c3ccc(CC(C)C)cc3)CC2)c(C)o1,-16%,2.14
Cc1cccc(C(=O)NS(=O)(=O)C(C)C)c1Cl,2%,-0.34
c1ccc2nc(N3C[C@@H]4CC[C@@H](C4)C3)cnc2c1,-15%,1.88
Cc1ccccc1OCC(=O)c1ccc2c(c1)N(Cc1ccc(C(=O)NCC(C)C)o1)C(=O)CO2,-15%,1.49
COC(=O)[C@@H](NC(=O)Nc1ccccc1)C(C)(C)C,-4%,0.65
Cc1cc(NC(=O)[C@H](C)S(=O)(=O)c2ccccc2Cl)on1,6%,-1.16
CC(C)Cc1nc(-c2ccc(=O)[nH]c2)n(-c2ccc(F)cc2)n1,-6%,0.75
Cn1nccc1CN[C@H]1CCN(c2cccc(OC(F)(F)F)c2)C1,0%,0.07
Cc1cccc(C(=O)N2CCC3(CCC(=O)N([C@H]4CCN(C)C4)C3)CC2)n1,4%,-0.57
CCCc1c(C(=O)N(Cc2ccncc2)[C@@H](C)CC)c(=O)cc(C)n1CC,-5%,1
COc1ccc(OCC(=O)N2CCCC[C@@H]2CCS(=O)(=O)c2ccccc2)cc1,-6%,0.67
Cn1c(C(=O)O)ccc1-c1ccc(F)cc1,0%,0.02
COc1cccc(CNC(=O)CCCn2nc(-c3ccccc3)c3ccccc32)c1,0%,0.09
O=C(Cn1cnc2cc3c(cc21)OCCO3)N1CCCCC1,-8%,1.3

Structure (SMILES),% Inhibition,Z score
CCc1noc(C)c1C(=O)N[C@@H](C)c1nncn1C1CCCC1,-24%,2.16
COc1cccc(Cn2nc(C(C)(C)C)c(CCC#N)c2O)n1,-3%,0.39
Cc1noc(-c2ccco2)c1C(=O)N(C)CCc1ccccn1,-1%,0.08
CN([C@H]1CCCc2c1cnn2C)S(=O)(=O)CCN1CCCC1,40%,-5.42
Cc1csc(C2(NCCc3c(C)nc4ccccn4c3=O)CCOCC2)n1,1%,-0.14
Cc1ccc(CN[C@@H]2COC3(CCC3)C2)nc1C,3%,-0.45
C[C@@H](CNC(=O)CCS(=O)(=O)N(C)C)c1cccs1,2%,-0.26
CC(C)n1ncc2c1[C@@H](NCc1ccc(O)cc1)CCC2,-8%,0.86
O=C(NCc1ccccc1)C1CCN(c2nccn3ccnc23)CC1,-6%,1.01
Cn1c(CN2CCC[C@H](C(=O)c3ccc4c(c3)OCO4)C2)nc2ccccc21,0%,0
c1ccc(Oc2ccc(CN3CCC(c4nnc[nH]4)CC3)o2)cc1,-5%,0.69
CCc1cc2c(cc1[C@H](C)N)C(C)(C)CCC2(C)C,6%,-0.87
COC(=O)[C@@H]1C[C@@H](O)CN1CCc1ccncc1,-5%,0.66
O=C(Cc1ccc[nH]c1=O)c1ccc(F)cc1,3%,-0.35
Cc1c(C(=O)N2CCC(C)CC2)c(C(F)(F)F)nn1C1CCN(C)CC1,-9%,1.75
O=C(c1cc2c(s1)CC[C@H](C(=O)N1CCCCC1)C2)N1CCCC1,28%,-3.22
Cc1sc(NC(=O)C(C)(C)C)c(C(=O)O)c1C,-5%,0.75
CCCCCOc1ccc(NC(=O)N2CCC3(CC2)CN(C)CCN3C)cc1,-10%,1.93
Cn1c(C(F)(F)F)nn(Cc2csc(-c3ccccc3)n2)c1=O,-3%,0.35
CCCn1ncc(CN2CCc3nc(NC)nc(C(=O)N4CCCC4)c3C2)c1C,-7%,1.06
COc1ccc(-c2cn3c(C(=O)N4CCC[C@H]4C(N)=O)csc3n2)cc1F,4%,-0.71
CN(C)C(=O)c1ccc2c(c1)N(CC(=O)N1CCc3ccccc3C1)C(=O)CO2,16%,-2.12
Cn1cncc1C(=O)Nc1ccnn1C1CCCC1,-16%,3.07
O=C(C[C@@H]1C=CCC1)Nc1cncc2ccccc12,-8%,0.79
O=C(CN1C(c2ccc(Cl)cc2)=C[C@@H](c2ccc(F)cc2)n2nnnc21)NCc1ccccc1,3%,-0.35
CC(C)(F)c1nc(-c2ccc(N3CCCOC3=O)cc2)no1,-17%,3.24
CCC(C)NC(=O)C(C)NC1CCCC(C(F)(F)F)C1 (stereo not drawn),-4%,0.38
